The list shows a part of the results.
Legend:
HSkMC = human skeletal muscle cells; assay: cytotoxicity call (relative viability < 0.9); settings: 10 µM
HepG2 = assay: cytotoxicity call (relative viability < 0.9); settings: 10 µM
S. aureus RN4220 = assay: growth inhibition call (relative growth <= 0.2); settings: 50 µM

Compound | cytotoxicity call (HSkMC) | cytotoxicity call (HepG2) | growth inhibition call (S. aureus RN4220)
C[C@H]1CN([C@@H](C)CO)C(=O)Cc2cc(NC(=O)c3ccncc3)ccc2O[C@@H]1CN(C)Cc1ccncc1 | inactive | inactive | inactive
C[C@H](CO)N1C[C@H](C)[C@@H](CN(C)Cc2ccc(C(F)(F)F)cc2)OCCCC[C@H](C)Oc2ccc(NC(=O)Nc3cccc4ccccc34)cc2C1=O | inactive | active | inactive
C[C@H]1CN([C@@H](C)CO)C(=O)c2cc(NC(=O)Nc3cccc4ccccc34)ccc2O[C@H]1CN(C)Cc1ccc(Cl)c(Cl)c1 | inactive | inactive | inactive
C[C@@H]1CN([C@@H](C)CO)C(=O)c2cc(NS(=O)(=O)c3ccc(Cl)cc3)ccc2O[C@@H](C)CCCCO[C@@H]1CN(C)C(=O)Nc1cccc2ccccc12 | inactive | inactive | inactive
O=C(CS)NCCCCCNC(=O)[C@@H]1C[C@@H]2C(=O)NCC(=O)N2[C@@H]1c1cccc(OCCO)c1 | inactive | inactive | inactive
CN(CCN)C1CCCCC1 | inactive | inactive | inactive
C[C@@H]1CN([C@H](C)CO)C(=O)c2cc(NC(=O)Cc3ccccc3)ccc2O[C@@H](C)CCCCO[C@@H]1CN(C)Cc1ccc(C(F)(F)F)cc1 | inactive | inactive | inactive
C[C@@H]1CN([C@H](C)CO)C(=O)c2c(c3ccccc3n2C)-c2ccccc2CO[C@@H]1CN(C)Cc1ccc2c(c1)OCCN2C | inactive | active | inactive
Cc1ccc(S(=O)(=O)N(C)C[C@@H]2OCCCC[C@H](C)Oc3ccc(NC(=O)C4CCCCC4)cc3C(=O)N([C@@H](C)CO)C[C@@H]2C)cc1 | inactive | inactive | inactive
C[C@H](CO)N1C[C@H](C)[C@@H](CN(C)Cc2ccc(C(=O)O)cc2)Oc2ncc(C#CCN(C)C)cc2C1=O | inactive | inactive | inactive
Cc1noc(C)c1NC(=O)N(C)C[C@H]1Oc2c(NS(C)(=O)=O)cccc2C(=O)N([C@H](C)CO)C[C@@H]1C | inactive | inactive | inactive
CCNC1CN(CCCOC)S(=O)(=O)c2sc(S(N)(=O)=O)cc21 (stereo unspecified) | inactive | inactive | inactive
COc1ccc(NC(=O)N(C)C[C@H]2Oc3c(NC(=O)c4ccc(-c5nccs5)cc4)cccc3C(=O)N([C@@H](C)CO)C[C@H]2C)cc1 | inactive | inactive | inactive
COc1ccc(NC(=O)O[C@H]2[C@H](OC(=O)Nc3ccccc3-c3ccccc3)[C@H](OC(=O)Nc3ccccc3-c3ccccc3)[C@@H](OC)O[C@@H]2CO)cc1 | inactive | inactive | inactive
COc1ccc(CN(C)C[C@@H]2OCCCC[C@@H](C)Oc3ccc(NC(=O)NC(C)C)cc3C(=O)N([C@@H](C)CO)C[C@H]2C)cc1 | inactive | inactive | inactive
COc1ccc(-c2cnc3c(c2)C(=O)N([C@@H](C)CO)C[C@@H](C)[C@@H](CN(C)S(=O)(=O)c2ccc(OC)cc2)O3)cc1 | inactive | inactive | inactive
C[C@H](CO)N1C[C@H](C)[C@@H](CN(C)S(=O)(=O)c2ccc(Cl)cc2)OCc2cn(nn2)CCCC1=O | inactive | inactive | inactive
COc1ccc2c3c(n(c2c1)C)[C@@H](CO)N(C[C@]13CCN(CC1)C(=O)c1ccccc1)C(=O)Nc1ccccc1F | inactive | inactive | inactive
Cc1noc(C)c1S(=O)(=O)N(C)C[C@@H]1Oc2c(NS(=O)(=O)c3cn(C)cn3)cccc2C(=O)N([C@H](C)CO)C[C@@H]1C | inactive | inactive | inactive

Compound | cytotoxicity call (HSkMC) | cytotoxicity call (HepG2) | growth inhibition call (S. aureus RN4220)
C[C@H](CO)N1C[C@H](C)[C@H](CN(C)C(=O)c2ccncc2)OCCCC[C@H](C)Oc2ccc(NS(=O)(=O)c3cn(C)cn3)cc2C1=O | inactive | inactive | inactive
C[C@H](CO)N1C[C@H](C)[C@H](CN(C)S(C)(=O)=O)Oc2ccc(NC(=O)Nc3ccc(F)cc3)cc2C1=O | inactive | inactive | inactive
C[C@@H]1CN([C@H](C)CO)C(=O)c2cc(NC(=O)CCCN(C)C)ccc2O[C@@H]1CN(C)S(=O)(=O)c1ccc(Cl)cc1 | inactive | inactive | inactive
O=C(N[C@H]1CC[C@@H](CCNS(=O)(=O)c2ccccc2)O[C@H]1CO)c1cnccn1 | inactive | inactive | inactive
CC(=O)N(C)C[C@@H]1Oc2cc(C#CCN(C)C)ccc2S(=O)(=O)N([C@H](C)CO)C[C@H]1C | inactive | inactive | inactive
COc1ccc(CN(C)C[C@H]2Oc3c(NC(=O)c4cc(C)nn4C)cccc3C(=O)N([C@H](C)CO)C[C@@H]2C)cc1 | inactive | inactive | inactive
C[C@@H]1CCCCO[C@H](CN(C)C(=O)NC2CCCCC2)[C@H](C)CN([C@H](C)CO)C(=O)c2cc(NC(=O)Cc3ccccc3)ccc2O1 | inactive | inactive | inactive
CO[C@H]1CN(C)C(=O)c2cc(NC(=O)C3CC3)ccc2OC[C@@H](C)N(C(=O)Cc2ccccn2)C[C@H]1C | inactive | inactive | inactive
C[C@@H]1CCCCO[C@H](CN(C)Cc2ccncc2)[C@@H](C)CN([C@H](C)CO)C(=O)c2cc(NC(=O)Nc3ccccc3)ccc2O1 | inactive | inactive | inactive
CC(=O)NC[C@H]1C[C@@H](N(C(C)=O)S(=O)(=O)c2cccc3cncc(C)c23)CN1 | inactive | inactive | inactive
CNC(=O)CN1C(=O)[C@@H]2[C@@H](C1=O)[C@@H]1C=C[C@@H]2C1 | inactive | inactive | inactive
C[C@H]1CCCCO[C@@H](CN(C)CC2CCCCC2)[C@@H](C)CN([C@@H](C)CO)C(=O)c2cc(NC(=O)c3ccccc3)ccc2O1 | inactive | inactive | inactive
C[C@H]1CCCCO[C@H](CN(C)CC2CCCCC2)[C@@H](C)CN([C@@H](C)CO)C(=O)c2cc(NC(=O)c3ccccc3)ccc2O1 | inactive | inactive | inactive
C[C@H](CO)N1C[C@H](C)[C@@H](CN(C)C(=O)CN(C)C)Oc2ncc(C#CC3(O)CCCC3)cc2C1=O | inactive | inactive | inactive
CO[C@@H]1CN(C)C(=O)c2cc(NC(=O)C3CC3)ccc2OC[C@H](C)N(C(=O)Cc2ccccn2)C[C@H]1C | inactive | inactive | inactive
O=C1c2ccc3c4c(ccc(c24)C(=O)N1CCCCO)C(=O)N(CCCCO)C3=O | active | active | inactive
COc1ccc(CN(C)C[C@@H]2Oc3ccc(NS(C)(=O)=O)cc3C(=O)N([C@@H](C)CO)C[C@H]2C)cc1 | inactive | inactive | inactive
C[C@H]1CN([C@@H](C)CO)C(=O)c2cccc(NC(=O)Nc3ccc(C(F)(F)F)cc3)c2O[C@@H]1CN(C)S(C)(=O)=O | inactive | inactive | inactive

— the antibiotic and cytotoxicity screens of Wong et al. (2023)
